# Data: US20220273713A1, “METHOD OF INHIBITING OR ACTIVATING GAMMA DELTA T CELLS” (The University of Melbourne, priority 2019, published 2022)
# B1: clone 227: neutralizing anti-BTN2A1 mAb; VH SEQ ID NO: 108, VL SEQ ID NO: 109 (antibody, V domains shown)
# VH: EVQLLESGGGLVQPGGSLRLSCAASGFTFSIYSMWWVRQAPGKGLEWVSRISPSGGGTYYADSVKGRFTISRDNSKNTLYLQMNSLRAEDTAVYYCTTPTVTTDYWGQGTLVTVSS
# VL: [about 100 residues not spelt out]
# modifications: amino acid sequence of clone 227 VH; amino acid sequence of clone 227 VL
# System: in vitro pre-expanded CD3+Vδ2+ γδ T cells
# Assay: HMBPP or anti-CD3/anti-CD28 activation of purified in vitro-expanded Vδ2+ T cells ± neutralizing anti-BTN2A1 mAb
# Type: cell-based, human
# Conditions: HMBPP 0.5 ng/ml, 10 μg/ml neutralizing anti-BTN2A1 mAb, no APCs
# Procedure: CD25 expression was determined by flow cytometry, and IFN-γ concentration was determined by cytometric bead array (BD Bioscience) as per manufacturer instructions.
molecule,measurement,value
B1,"HMBPP-induced activation (CD25 upregulation, IFN-γ production)",failed to upregulate CD25 and produce IFN-γ
